Source: the supplement of paper PMC4166925
± gives the standard deviation of the averaged measurements. The full ranking holds about 33,000 sequences; the median of “E-score (dimensionless, -0.5 to 0.5)” is about -0.049, and the highest 2% start at about 0.37. The list shows a part of the results.

The sequences below were run on T1, PmTbr T-box DNA-binding domain (GST fusion) (assay: PBM E-score of 8-mer (E-score (dimensionless, -0.5 to 0.5)); Tbr is Tbrain of the sea star Patiria miniata (Pm) or the sea urchin Strongylocentrotus purpuratus (Sp); higher = stronger binding preference; most listed sequences are background and not binding sites). Settings: the construct has about 5 more residues each side.
T1 sequence: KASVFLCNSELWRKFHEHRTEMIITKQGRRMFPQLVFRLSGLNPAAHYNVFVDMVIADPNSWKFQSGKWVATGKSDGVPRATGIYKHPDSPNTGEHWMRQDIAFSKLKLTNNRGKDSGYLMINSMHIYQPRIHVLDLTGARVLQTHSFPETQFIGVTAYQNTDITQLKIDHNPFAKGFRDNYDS
Experimental: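 Universal protein-binding microarray (Agilent AMADID 016060, 60-bp probes with a 35-bp variable region) incubated with 200 nM GST-fused Patiria miniata Tbr T-box DNA-binding domain (residues 272-466) in PBS pH 7.5. Scored for every ungapped 8-mer (given with its reverse complement) by the Universal PBM Analysis Suite as E-score (modified Wilcoxon-Mann-Whitney enrichment, range -0.5 to 0.5; >0.45 counts as bound) and Z-score of median probe intensity. Two replicate arrays (datasets 1 and 2).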
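Note: 200 nM protein in PBS on universal arrays averaged over duplicate arrays.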

Sequence	PBM E-score of 8-mer
CGTACAAG	-0.155 ± 0.086
CTAATTCA	0.152 ± 0.017
ACTGTTAC	0.118 ± 0.043
AAGCTCGA	-0.131 ± 0.03
CAGTGAAA	0.086 ± 0.062
ATGTCTGA	-0.155 ± 0.017
ACAGCCGG	-0.149 ± 0.03
ACCAAGCA	-0.119 ± 0.059
CATATTAA	-0.183 ± 0.051
CCATTTTC	-0.0582 ± 0.12
AGTTATGC	-0.0257 ± 0.024
ACCGCCTA	-0.0488 ± 0.063
ACAGCACC	0.255 ± 0.0057
GGTTTGGA	-0.144 ± 0.0032
GTGAGGGA	0.168 ± 0.044
TAAGCACA	-0.0647 ± 0.076
GTCCTCAA	-0.21 ± 0.0099
AATTCTGA	-0.0118 ± 0.089
CGGGTCCC	0.0661 ± 0.095
CAACGTCG	0.057 ± 0.012
GACGCGGA	-0.0152 ± 0.0088
ATGTGCTC	-0.297 ± 0.012
ATCCCATG	-0.123 ± 0.0037
ATACACTC	0.0255 ± 0.064
CTCAAGGC	-0.251 ± 0.011

Sequence	PBM E-score of 8-mer
ATCCAGCA	-0.175 ± 0.032
GGTCAGCA	-0.191 ± 0.1
GCGTATAC	-0.077 ± 0.068
CCGCATAC	-0.209 ± 0.1
AGGAGAAC	-0.0577 ± 0.047
CGTTGTAC	-0.0969 ± 0.027
ATGGAGTA	-0.232 ± 0.0091
ACACAAAG	0.0805 ± 0.039
CCGCACAC	0.159 ± 0.027
CAAATCAA	-0.0108 ± 0.0023
CAAGTATG	0.134 ± 0.013
TCGAGCGA	-0.0621 ± 0.063
AGATCGGA	0.0259 ± 0.052
CCTGATTA	-0.0272 ± 0.028
ACAGTACA	0.00842 ± 0.022
AATTGTCC	-0.195 ± 0.11
CCCGGGCC	-0.22 ± 0.089
ATGTGGCG	0.236 ± 0.025
GCCCTCGC	0.212 ± 0.023
GTGTATAA	0.108 ± 0.1
CCGACTGA	-0.0945 ± 0.011
CACACTCA	0.3814 ± 0.0034
AATAGGGT	-0.0937 ± 0.038
CCGACGCC	0.215 ± 0.051
AGCCTCCC	-0.216 ± 0.003

Sequence	PBM E-score of 8-mer
ATACACTA	-0.161 ± 0.026
GAAGTCAA	-0.139 ± 0.031
AGCCTTTC	-0.125 ± 0.036
ATTCAACA	-0.0395 ± 0.014
AATCCTTA	-0.0874 ± 0.016
CCTTTAAC	0.13 ± 0.11
CCCCCCCG	-0.265 ± 0.022
ATTCGCGA	0.389 ± 0.0025
ATAGTCAT	-0.205 ± 0.072
AAAAGCCT	-0.105 ± 0.013
CACGCTCC	0.148 ± 0.012
CAGATATA	-0.126 ± 0.1
CGAATCCG	0.117 ± 0.028
CTTGAGGC	-0.198 ± 0.017
AACAGTAC	0.0354 ± 0.012
ACGCTGGC	0.0376 ± 0.024
ATTGTACA	-0.164 ± 0.014
TTATGCAA	-0.22 ± 0.041
AAGTACGC	-0.109 ± 0.045
GTGACAGA	0.348 ± 0.0052
ACTGAACG	-0.315 ± 0.091
CGCCGGCA	0.134 ± 0.043
CAAAGGCC	-0.26 ± 0.042
ACGGGCCA	-0.323 ± 0.035
GACTGTGC	-0.0215 ± 0.02

Sequence	PBM E-score of 8-mer
CCCCTGCG	-0.147 ± 0.029
CCGACCCA	-0.196 ± 0.052
GAAACGAC	0.132 ± 0.018
AAAAAAAC	0.00934 ± 0.077
ACCCCGTA	0.0227 ± 0.038
ACCTAACA	0.3379 ± 0.0024
CAAGGACG	-0.135 ± 0.0014
ACTTGAGG	-0.0252 ± 0.019
GCTGCACA	0.0562 ± 0.02
AGACAGTG	0.141 ± 0.06
ATGTCTGG	-0.071 ± 0.0064
CCTGTCGC	0.247 ± 0.064
AGAATTCT	0.0148 ± 0.1
AGGGAATG	-0.318 ± 0.075
AGACTTTA	-0.226 ± 0.099
GAAATCTA	-0.239 ± 0.024
AGCACAGA	-0.153 ± 0.11
GAATAGCA	0.126 ± 0.034
CCTTTTTC	-0.126 ± 0.028
GTAGTTTA	0.00144 ± 0.0037
CTACCTAC	-0.216 ± 0.098
CACAGGTA	0.163 ± 0.029
AACTACTT	-0.0181 ± 0.019
CAAGCGGG	-0.124 ± 0.011
GGGGTCAC	0.104 ± 0.0032

Sequence	PBM E-score of 8-mer
AGAGGAGA	-0.0936 ± 0.0028
CAACGAAC	-0.127 ± 0.13
AGAAATTA	-0.237 ± 0.12
CTGCCGGC	-0.0591 ± 0.1
GTGGAACA	0.0806 ± 0.064
GAAACAGA	-0.169 ± 0.058
TACCCACA	0.107 ± 0.03
TCTCCCCA	-0.0247 ± 0.026
CAATAACC	-0.0704 ± 0.022
ATGCCGGA	-0.239 ± 0.037
GGCCGGTA	-0.0959 ± 0.011
TAAGGGTA	-0.0816 ± 0.1
ACCCTTCA	0.0464 ± 0.023
CCTTATAG	-0.0154 ± 0.1
ACTAAGCC	-0.141 ± 0.11
CCATATCG	-0.11 ± 0.0042
TAGATTGA	-0.229 ± 0.059
ATGCAATC	-0.0992 ± 0.016
ATTCCAAT	0.0337 ± 0.048
AAGGCGCG	0.32 ± 0.011
CTTCTTTA	0.0178 ± 0.01
CACACGAA	-0.0891 ± 0.04
AAACCCGC	0.144 ± 0.018
ATGGACTA	-0.0491 ± 0.0021
CGTATGAA	-0.188 ± 0.11

Sequence	PBM E-score of 8-mer
ACCAGAAG	0.0397 ± 0.019
ACAGACTA	-0.198 ± 0.085
TGGTTACA	0.0316 ± 0.057
ATACCTTC	0.00168 ± 0.039
CAGGCCGC	-0.0846 ± 0.021
GTAAATTA	-0.134 ± 0.095
ACCTTCAG	-0.0271 ± 0.043
CCGGCTCA	-0.114 ± 0.029
ATGCCGAG	-0.1 ± 0.035
ATGGCTTC	-0.16 ± 0.012
ACTGAGAC	-0.232 ± 0.0055
ATTACGCC	-0.0352 ± 0.086
AAATATCC	-0.0248 ± 0.021
ACGCCGAC	0.129 ± 0.014
TCGGTTAA	-0.0369 ± 0.011
CGGGTGGA	-0.0228 ± 0.025
CTGCGAGC	0.162 ± 0.013
AACCGAAT	-0.22954 ± 3.5e-05
ATCTGTCA	0.311 ± 0.016
CTCGATTC	-0.169 ± 0.0064
GCAAGTAA	0.129 ± 0.032
GTGTGGCA	0.258 ± 0.033
ATCTTCAG	-0.156 ± 0.054
ATTTCCGG	-0.162 ± 0.04
AAATTGGT	-0.0362 ± 0.063

Sequence	PBM E-score of 8-mer
ACGTGGGC	-0.148 ± 0.094
GCAGGCTA	-0.198 ± 0.049
CTGCCGGA	-0.119 ± 0.0089
CACCTTGG	0.45511 ± 0.00014
AGTCAAAA	-0.16 ± 0.093
CTTCAGGA	-0.101 ± 0.0096
CCAGCATA	-0.177 ± 0.012
ACACTTCA	0.441 ± 0.017
CCTGATAG	-0.0127 ± 0.018
ATCGGTCC	-0.13 ± 0.025
AGAGCTCG	-0.265 ± 0.02
GTCTCGGA	-0.302 ± 0.052
AGGCTTGC	-0.134 ± 0.056
TATGCACA	-0.0819 ± 0.016
GGCGCGTA	0.0636 ± 0.0022
GATATTCC	-0.08 ± 0.018
CCCCCCTA	-0.151 ± 0.0074
CGCATATA	0.0397 ± 0.072
TCCTAGGA	-0.252 ± 0.078
ACTTTACC	0.0103 ± 0.017
TGGGATAA	0.16 ± 0.078
ATGATTCC	-0.137 ± 0.008
